PubChem BioAssay AID488969 (Vanderbilt High Throughput Screening Facility, 2010)
Whole data set: some 110,000 compounds, median “z-score” near -0.1, cut for the highest 2% near 2. The list shows a part of the results. Activity calls are given as the source filed them.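 The calls were made as follows: active = z-score in the third read window above 3 or below -3; inactive = the rest.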

What follows are compounds tested against Metabotropic glutamate receptor 8 (Rattus norvegicus) (UniProt P70579) (assay: mGluR8 Gi/Go-coupled signaling modulation – cell-based, rat, thallium flux, HTS, primary screen (AID 488969)). Conditions: HEK293 rat mGluR8, GIRK (G protein-gated inwardly rectifying potassium channel) thallium flux, FluoZin2; at 10 µM; stronger effect = higher value; submaximal glutamate (EC20) added with thallium.
UniProt P70579, sequence (P70579 whole entry, looked up): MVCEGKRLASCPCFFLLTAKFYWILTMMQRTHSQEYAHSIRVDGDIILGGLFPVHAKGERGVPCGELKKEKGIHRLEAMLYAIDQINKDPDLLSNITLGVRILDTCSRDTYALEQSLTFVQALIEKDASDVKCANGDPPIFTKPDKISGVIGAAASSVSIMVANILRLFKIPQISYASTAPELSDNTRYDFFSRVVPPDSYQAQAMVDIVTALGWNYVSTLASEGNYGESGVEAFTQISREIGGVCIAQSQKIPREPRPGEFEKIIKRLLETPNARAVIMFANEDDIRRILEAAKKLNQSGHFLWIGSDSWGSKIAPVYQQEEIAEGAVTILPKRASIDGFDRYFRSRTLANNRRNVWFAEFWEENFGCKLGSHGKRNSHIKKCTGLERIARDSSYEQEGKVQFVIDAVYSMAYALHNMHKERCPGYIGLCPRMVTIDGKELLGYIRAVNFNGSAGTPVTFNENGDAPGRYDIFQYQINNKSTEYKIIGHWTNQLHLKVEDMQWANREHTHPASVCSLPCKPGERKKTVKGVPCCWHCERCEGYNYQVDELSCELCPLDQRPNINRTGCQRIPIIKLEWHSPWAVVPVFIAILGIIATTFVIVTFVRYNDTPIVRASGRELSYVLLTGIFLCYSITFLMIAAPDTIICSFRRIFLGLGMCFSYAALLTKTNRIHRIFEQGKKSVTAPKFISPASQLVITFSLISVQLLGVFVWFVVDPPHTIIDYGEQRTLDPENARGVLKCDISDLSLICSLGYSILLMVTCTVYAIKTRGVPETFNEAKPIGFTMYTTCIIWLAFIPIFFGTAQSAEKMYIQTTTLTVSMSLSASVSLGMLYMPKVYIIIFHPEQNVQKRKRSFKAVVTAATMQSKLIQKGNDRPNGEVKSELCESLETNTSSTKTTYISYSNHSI
`COn1c(SCc2ccccc2)nc2ccccc2c1=O` was tested, and the z-score was -0.878.
`c1ccc(C2CCC(N3CCC(N4CCCCC4)CC3)CC2)cc1` (stereo unspecified) showed a z-score of -0.423.
`CCC(=O)Nc1ccc(N2CCCCC2)c(C(=O)Nc2ccccc2C)c1` was tested, and the z-score was -0.234.
`COC(=O)C1C(=O)C=C(Nc2ccc(F)cc2)CC1c1ccc(OC)cc1` (stereo unspecified) showed a z-score of -0.267.
`COc1ccc(N(C(=O)Cc2cccs2)C(C(=O)NC2CCCCC2)c2cccn2C)cc1OC` (stereo unspecified) was tested, and the z-score was -1.31.
For `CC(C)(C)NC(=S)NNC(=O)c1ccccc1Cl`, the z-score was -0.0422.
With `Cc1nn(C)c(C(=O)NNC(=S)Nc2ccc(Cl)cc2)c1[N+](=O)[O-]` the z-score was -0.115.
`Cc1c(Br)c([N+](=O)[O-])nn1C(C)C(=O)NCc1cccnc1` (stereo unspecified) gave a z-score of -0.245.
`Cc1ccc(OCCSc2ncnc3sc(C)c(C)c23)cc1C` showed a z-score of 1.3.
`CC1CCc2cc(F)cc3c(O)c(C(=O)NCC4CCCO4)c(=O)n1c23` (stereo unspecified) showed a z-score of -0.274.
With `CCOC(=O)C(C)Sc1nc(N)c(NC(=O)c2ccc(OC)c(OC)c2)c(=O)[nH]1` (stereo unspecified) the z-score was 0.0479.
`COc1ccc(CN(C(=O)c2cc3ccccc3oc2=O)C2CCCC2)cc1` was tested, and the z-score was -0.77.
With `CC(=O)Nc1ccccc1NC(=O)C(F)(F)F` the z-score was -0.257.
Work on `Cc1ccccc1NC(=O)CN1C(=O)S/C(=C\c2cccn2-c2cccc(C(=O)O)c2)C1=O` yielded a z-score of -0.405.
For `O=C(COC(=O)CN1C(=O)c2ccccc2C1=O)Nc1ccc(S(=O)(=O)N2CCCC2)cc1`, the z-score was -0.521.
`O=C(O)COc1ccc(Cl)cc1CO` gave a z-score of -0.51.
`C#CCOC(=O)/C(=C/c1ccc(F)cc1)NC(C)=O` showed a z-score of 0.0399.
`COCCN1C(=O)C(=O)/C(=C(/O)c2ccc(S(=O)(=O)N3CCOCC3)cc2)C1c1ccc(C(C)C)cc1` (stereo unspecified) showed a z-score of 0.0253.
`CCCCc1nc(NCCNC(=O)c2ccco2)c(C#N)c2c1CSC(C)(C)C2` gave a z-score of -2.11.
`COc1ccc2c(CC(=O)Nc3cccc(S(=O)(=O)N4CCOCC4)c3)coc2c1` was tested, and the z-score was -0.307.
Compound `Cc1nn(C(=O)c2cccnc2)c(C)c1Sc1ccc(Br)cc1` has a z-score of -0.14.
With `COc1ccc(-c2[nH]c(-c3ccc(F)cc3)nc2SCC(=O)NCc2ccco2)cc1OC` the z-score was 1.01.
`COc1cc(NC(=O)COC(=O)c2ccccc2F)cc(OC)c1` gave a z-score of 0.624.
`COc1ccc(C)cc1NC(=O)CN1CCN(S(=O)(=O)c2ccc(Cl)cc2)CC1` showed a z-score of 0.0174.
`COc1ccc(C)cc1NC(=O)c1cnc2n(c1=O)CCS2` gave a z-score of -0.189.
`CCCCNC(=O)CC1N=C2c3ccccc3N=C(SCC(=O)Nc3cccc(C)c3)N2C1=O` (stereo unspecified) was tested, and the z-score was -0.317.
`CCCS(=O)(=O)N1CCCC(C(=O)NCCCN(C)Cc2ccccc2)C1` (stereo unspecified) showed a z-score of -0.043.
In the case of `CCc1ccc(/C=N/NC(=O)c2cc(-c3ccncc3)nc3ccccc23)s1`, the z-score is reported as 0.812.
Work on `O=C1CC(c2ccc(F)cc2)CC(O)=C1C=NCCN1CCNCC1` (stereo unspecified) yielded a z-score of 0.679.
Compound `CC(C)c1cc(C(=O)Nc2cccnc2)no1` has a z-score of -0.13.
`COc1cc(C(O)c2nc3ccccc3n2C)cc(OC)c1OC` (stereo unspecified) was tested, and the z-score was 0.615.
`COC(=O)c1ccc(S(=O)(=O)N2CCCCC2)o1` showed a z-score of -0.0667.
`O=C(CCNC(=O)Cn1ccc2ccccc2c1=O)NCCN1CCc2ccccc2C1` gave a z-score of 0.112.
With `CC(=O)c1cccc(NC(=O)Nc2cnn(Cc3ccc(Cl)cc3Cl)c2)c1` the z-score was -0.521.
`Cc1ccc(CNS(=O)(=O)c2ccc(C(C)(C)C)cc2)n1C` showed a z-score of 0.224.
For `CCCC(C)C(=O)Nc1ccc2c(c1)OCCO2` (stereo unspecified), the z-score was 0.317.
For `CCOc1ccc(C(CC(=O)O)NC(=O)c2sc3ccccc3c2Cl)cc1` (stereo unspecified), the z-score was -0.958.
`Cc1ccc(NCC(O)C(O)C(O)CO)cc1C` (stereo unspecified) showed a z-score of 0.065.
`CN1CCN(CCCNC(=O)c2ccc(CSCc3cccc(Cl)c3)o2)CC1` was tested, and the z-score was 1.35.
`N#Cc1c(N)nc(SCc2ccccc2)c(C#N)c1-c1ccco1` was tested, and the z-score was active: 11.4.
`O=C(CSc1nc2ccccc2[nH]1)Nc1ccccc1N1CCOCC1` was tested, and the z-score was -0.49.
With `O=C(O)CCCCNCc1ccccc1` the z-score was -0.0208.
`Cc1cc(NC(=O)C2CCCN2C(=O)Nc2c(C)cccc2C)ccc1-n1cnnn1` (stereo unspecified) was tested, and the z-score was -0.226.
`CC(C)(C)NS(=O)(=O)c1ccc(-c2csnn2)s1` gave a z-score of 0.119.
`O=C(NCCc1ccccc1)c1ccnc(/C=N/O)c1` was tested, and the z-score was 0.0055.
`O=C(Cc1ccc(-n2c(=O)[nH]c3ccsc3c2=O)cc1)NCc1cccnc1` gave a z-score of -0.236.
For `CCC(=O)N/C(N)=N/c1nc(C)c2cc(OC)ccc2n1`, the z-score was 0.0062.
In the case of `Cc1nc(N)sc1-c1csc(Nc2ccccn2)n1`, the z-score is reported as 0.534.
With `c1nc(N2CCOCC2)c2sc3nc(N4CCOCC4)c4c(c3c2n1)CCCC4` the z-score was -0.0517.
`CCCn1c(SCC(=O)Nc2nnc(CC)s2)nnc1-c1ccco1` gave a z-score of 0.461.
`COC(=O)CN(c1nc(C)c(Cl)c(OC)n1)S(=O)(=O)c1ccc(C)cc1` gave a z-score of -0.425.
`COc1ccc(-c2nc(N3CCCCCC3)sc2C(=O)c2ccccc2)cc1` showed a z-score of -0.453.
In the case of `COc1ccc(NC(=O)CSc2nc(N)c(C#N)cc2C#N)cc1`, the z-score is reported as -0.295.
Work on `Cc1cc(C)c(NC(=O)NC(=O)c2ccc(F)cc2)c(C)n1` yielded a z-score of -0.563.
`CCCCOc1ccc(C(=O)Nc2ccncc2)cc1` showed a z-score of -0.848.
`CC(=O)c1ccc(S(=O)c2ccccc2)cc1` (stereo unspecified) showed a z-score of -0.124.
Work on `CCCc1nc(-c2ccccc2O)n(-c2ccccc2)n1` yielded a z-score of -0.0141.
`O=C(Nc1nnc(-c2ccc3c(c2)CCCC3)o1)c1ccccc1Cl` was tested, and the z-score was active: 5.26.
In the case of `COC(=O)/C(=C\Nc1ccccc1N)c1ncc(C(F)(F)F)cc1Cl`, the z-score is reported as -0.202.
Work on `Cn1cnnc1SC1CCCCC1NS(=O)(=O)c1ccc(Cl)cc1` (stereo unspecified) yielded a z-score of -0.287.
For `O=C(Nc1cccc(C(F)(F)F)c1)C1C2CC3OC(=O)C1C3C2` (stereo unspecified), the z-score was 0.119.
Compound `Cc1cc(C(=O)CN2C(=O)NC3(CCCCC3)C2=O)c(C)n1-c1ccc2c(c1)OCO2` has a z-score of -0.621.
`CCOC(=O)c1cnc2ccc(C)cc2c1OCc1cc(F)cc(F)c1` was tested, and the z-score was -0.633.
`CC(C)c1cc(C(=O)Nc2cccc(C(F)(F)F)c2)no1` gave a z-score of 0.337.
In the case of `COc1ccc(C(C)=O)cc1CSc1nc2ccccc2c(=O)n1-c1ccccc1`, the z-score is reported as 0.112.
`O=C(NCCCn1ccnc1)c1cc(-c2ccc3c(c2)OCO3)on1` was tested, and the z-score was -0.842.
With `O=C(CN1CCN(S(=O)(=O)c2ccccc2)CC1)NC(=O)NC1CCCCC1` the z-score was -0.406.
`Cc1nc2c(o1)CCc1ccccc1C2N1CCN(C)CC1` (stereo unspecified) was tested, and the z-score was 0.153.
Work on `O[C@@H](CNC[C@H](O)c1ccccc1)c1ccccc1` yielded a z-score of -1.29.
`O=P(O)(CCc1ccccc1)C(O)c1ccccc1` (stereo unspecified) showed a z-score of -0.89.
In the case of `Cc1nc2cc3c(cc2c(C)c1C(=O)OC(C)C)OCO3`, the z-score is reported as -0.332.
